# Data as given in the supplement of paper PMC8728848.
# Some of the results follow.
# B1: Cohesin-marm-DC-ASGPR (protein)
# chain: LDITSHHHHHHDDLDAVRIKVDTVNAKPGDTVRIPVRFSGIPSKGIANCDFVYSYDPNVLEIIEIEPGDIIVDPNPDKSFDTAVYPDRKIIVFLFAEDSGTGAYAITKDGVFATIVAKVKEGAPNGLSVIKFVEVGGFANNDLVEQKTQFFDGGVNVGDTTEPATPTTPVTTPTTTDDLDAASSKFQRDLVTLRTDFSNFTSNTLAEIQALTSQGSSLQETIASLKAEVEGHKQELQAGASELQEHNKQKAHLGRCPHTCVCPSSFVCVPVHSEILLRVQQLVQDLNKLSCQVAILKNNATTERTCCPINWVEHQGSCYWFSRSGKTWPEAERYCQLENTHLVVINSREEQNFVQAHLGSAYTWMGLSDPEGVWKWVDGTDYSSGFQNWKPGQPDDWQGHGLGGGEDCAHFHPDGRWNDDVCQRSYHWVCEAGLTQASQDSHAS
# Tests used:
# Assay in all cases: glycan array binding signal (z-score within array); higher = stronger binding
# Settings in all cases: glycan notation: IUPAC condensed, linker removed
# [1] = target: GlcNAc(b1-4)GlcNAc(b1-4)GlcNAc(b1-4)GlcNAc(b1-4)GlcNAc(b1-4)GlcNAc
# How it was run: (§1)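 The binding signal is a Z-score computed within each array and averaged over linkers. Arrays of the same protein sequence at different concentrations or buffers were also averaged together. Data originate from 3228 arrays in the Consortium for Functional Glycomics database, kept only where the protein sequence was available.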
# [2] = target: GlcNAc(b1-4)[GlcNAc(b1-6)]GalNAc
# How it was run: as §1
# [3] = target: GlcNAc(b1-6)Gal(b1-4)GlcNAc
# How it was run: as §1
# GlcNAc(b1-6)GalNAc = target: GlcNAc(b1-6)GalNAc
# How it was run: as §1
# [4] = target: GlcNAc6S(b1-3)Gal(b1-4)GlcNAc
# How it was run: as §1
# Kdn(a2-3)Gal(b1-3)GalNAc = target: Kdn(a2-3)Gal(b1-3)GalNAc
# How it was run: as §1
# Kdn(a2-3)Gal(b1-3)GlcNAc = target: Kdn(a2-3)Gal(b1-3)GlcNAc
# How it was run: as §1
# Kdn(a2-3)Gal(b1-4)Glc = target: Kdn(a2-3)Gal(b1-4)Glc
# How it was run: as §1
# Kdn(a2-3)Gal(b1-4)GlcNAc = target: Kdn(a2-3)Gal(b1-4)GlcNAc
# How it was run: as §1
# [5] = target: Kdn(a2-3)Gal(b1-4)[Fuc(a1-3)]GlcNAc
# How it was run: as §1
# Kdn(a2-6)Gal(b1-4)GlcNAc = target: Kdn(a2-6)Gal(b1-4)GlcNAc
# How it was run: as §1
# [6] = target: Man(a1-2)Man(a1-2)Man(a1-3)Man
# How it was run: as §1
# [7] = target: Man(a1-2)Man(a1-2)Man(a1-6)[Man(a1-3)]Man
# How it was run: as §1
# Man(a1-2)Man(a1-3)Man = target: Man(a1-2)Man(a1-3)Man
# How it was run: as §1
# [8] = target: Man(a1-2)Man(a1-3)[Man(a1-2)Man(a1-6)]Man
# How it was run: as §1
# [9] = target: Man(a1-2)Man(a1-3)[Man(a1-2)Man(a1-6)]Man(a1-6)[Man(a1-2)Man(a1-2)Man(a1-3)]Man
# How it was run: as §1
# [10] = target: Man(a1-2)Man(a1-3)[Man(a1-2)Man(a1-6)]Man(a1-6)[Man(a1-2)Man(a1-2)Man(a1-3)]Man(b1-4)GlcNAc(b1-4)GlcNAc
# How it was run: as §1
# [11] = target: Man(a1-2)Man(a1-3)[Man(a1-6)]Man(a1-6)[Man(a1-2)Man(a1-3)]Man(b1-4)GlcNAc(b1-4)GlcNAc
# How it was run: as §1
# [12] = target: Man(a1-2)Man(a1-6)[Man(a1-3)]Man(a1-6)[Man(a1-2)Man(a1-2)Man(a1-3)]Man
# How it was run: as §1
# [13] = target: Man(a1-2)Man(a1-6)[Man(a1-3)]Man(a1-6)[Man(a1-2)Man(a1-2)Man(a1-3)]Man(b1-4)GlcNAc(b1-4)GlcNAc
# How it was run: as §1
# Man(a1-3)[Man(a1-6)]Man = target: Man(a1-3)[Man(a1-6)]Man
# How it was run: as §1
# [14] = target: Man(a1-3)[Man(a1-6)]Man(a1-6)[Man(a1-2)Man(a1-3)]Man(b1-4)GlcNAc(b1-4)GlcNAc
# How it was run: as §1
# [15] = target: Man(a1-3)[Man(a1-6)]Man(a1-6)[Man(a1-3)]Man
# How it was run: as §1
# [16] = target: Man(a1-3)[Man(a1-6)]Man(a1-6)[Man(a1-3)]Man(b1-4)GlcNAc(b1-4)GlcNAc
# How it was run: as §1
# [17] = target: Man(a1-3)[Man(a1-6)]Man(b1-4)GlcNAc(b1-4)GlcNAc
# How it was run: as §1
# [18] = target: Man(a1-3)[Man(a1-6)]Man(b1-4)GlcNAc(b1-4)[Fuc(a1-6)]GlcNAc
# How it was run: as §1
# Man(a1-6)Man = target: Man(a1-6)Man
# How it was run: as §1
# Man(b1-4)GlcNAc = target: Man(b1-4)GlcNAc
# How it was run: as §1
# MurNAc(b1-4)GlcNAc = target: MurNAc(b1-4)GlcNAc
# How it was run: as §1
# Neu5Ac(a2-3)Gal = target: Neu5Ac(a2-3)Gal
# How it was run: as §1
# [19] = target: Neu5Ac(a2-3)Gal(b1-3)GalNAc
# How it was run: as §1
# [20] = target: Neu5Ac(a2-3)Gal(b1-3)GalNAc(b1-3)Gal(a1-4)Gal(b1-4)Glc
# How it was run: as §1
# [21] = target: Neu5Ac(a2-3)Gal(b1-3)GalNAc(b1-4)[Neu5Ac(a2-3)]Gal(b1-4)Glc
# How it was run: as §1
# [22] = target: Neu5Ac(a2-3)Gal(b1-3)GalNAc(b1-4)[Neu5Ac(a2-8)Neu5Ac(a2-3)]Gal(b1-4)Glc
# How it was run: as §1
# [23] = target: Neu5Ac(a2-3)Gal(b1-3)GalNAc6S
# How it was run: as §1
# [24] = target: Neu5Ac(a2-3)Gal(b1-3)GlcNAc
# How it was run: as §1
# [25] = target: Neu5Ac(a2-3)Gal(b1-3)GlcNAc(b1-2)Man
# How it was run: as §1
binder,measurement,setting,value
B1,glycan array binding signal (z-score),[1],-0.29
same,glycan array binding signal (z-score),[2],-0.297
same,glycan array binding signal (z-score),[3],-0.285
same,glycan array binding signal (z-score),GlcNAc(b1-6)GalNAc,4.74
same,glycan array binding signal (z-score),[4],-0.249
same,glycan array binding signal (z-score),Kdn(a2-3)Gal(b1-3)GalNAc,-0.292
same,glycan array binding signal (z-score),Kdn(a2-3)Gal(b1-3)GlcNAc,-0.306
same,glycan array binding signal (z-score),Kdn(a2-3)Gal(b1-4)Glc,-0.297
same,glycan array binding signal (z-score),Kdn(a2-3)Gal(b1-4)GlcNAc,-0.305
same,glycan array binding signal (z-score),[5],-0.287
same,glycan array binding signal (z-score),Kdn(a2-6)Gal(b1-4)GlcNAc,-0.299
same,glycan array binding signal (z-score),[6],-0.117
same,glycan array binding signal (z-score),[7],-0.281
same,glycan array binding signal (z-score),Man(a1-2)Man(a1-3)Man,-0.257
same,glycan array binding signal (z-score),[8],-0.305
same,glycan array binding signal (z-score),[9],-0.308
same,glycan array binding signal (z-score),[10],-0.296
same,glycan array binding signal (z-score),[11],-0.31
same,glycan array binding signal (z-score),[12],-0.216
same,glycan array binding signal (z-score),[13],-0.287
same,glycan array binding signal (z-score),Man(a1-3)[Man(a1-6)]Man,-0.238
same,glycan array binding signal (z-score),[14],-0.288
same,glycan array binding signal (z-score),[15],-0.272
same,glycan array binding signal (z-score),[16],-0.3
same,glycan array binding signal (z-score),[17],-0.305
same,glycan array binding signal (z-score),[18],-0.31
same,glycan array binding signal (z-score),Man(a1-6)Man,0.424
same,glycan array binding signal (z-score),Man(b1-4)GlcNAc,-0.3
same,glycan array binding signal (z-score),MurNAc(b1-4)GlcNAc,-0.304
same,glycan array binding signal (z-score),Neu5Ac(a2-3)Gal,-0.267
same,glycan array binding signal (z-score),[19],-0.309
same,glycan array binding signal (z-score),[20],-0.304
same,glycan array binding signal (z-score),[21],-0.268
same,glycan array binding signal (z-score),[22],-0.299
same,glycan array binding signal (z-score),[23],-0.245
same,glycan array binding signal (z-score),[24],-0.301
same,glycan array binding signal (z-score),[25],-0.263
